Data taken from PubChem BioAssay AID1347417 (National Center for Advancing Translational Sciences (NCATS), 2020).
Among all 120,000 compounds or so, about 5,300 (4.4%) were called active. Inconclusive results, whose numbers are uncertain, are shown with a selection of clear calls. Calls follow the shape of the dose curve; as a rule, active = well fitted inhibition curve with a large enough effect; inconclusive = small, poorly fitted or top-dose-only effect; inactive = no such curve, though single readings can be large or run the other way. Where the call is inconclusive, the potency comes from a doubtful curve fit.
Potency is read from the fitted curve at half-maximal effect; tags tell the direction and shape of the fitted curve.

Assay: qHTS Primary assay for Inhibitors of Plasmodium falciparum Dd2 growth in vitro; also: nearly all actives have a fitted effect of over 65% in size;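 as to activity, negative = inhibition: plate controls were DMSO vehicle for no effect and reference drug for full effect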
Settings: P. falciparum Dd2 growth, SYBR Green, 72 h; activity, negative = inhibition: at 28.9 µM (top of the series) unless noted; series mostly up to 28.9 µM
Procedure, shortened: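 Infected erythrocytes (Dd2, 0.3% parasitemia, 2.5% hematocrit final) are added to compound in RPMI-1640/Albumax II medium, grown 72 h at 37C in low oxygen, then lysed with saponin/Triton-X containing SYBR Green and read by fluorescence.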
With Cc1ccc2nc(N3CCC(C(=O)N4CCN(c5cccc(Cl)c5)CC4)CC3)[nH]c2c1 the Potency was inconclusive: 10 µM [inhibitor, single point]. With COc1ccc(C(=O)NC2CCN(c3cnn(C)c(=O)c3)CC2)c(OC)n1 the “activity, negative = inhibition” value was inactive: -13.4%. In the case of CC(C)(C)c1cc(C[C@@H]2C[C@H](NCc3ccccn3)C2(C)C)no1, the Potency is reported as inconclusive: 11.2 µM [inhibitor, partial curve, poor fit]. With c1ccc(Nc2c(-c3c[nH]c4ccccc34)nc3ccccn23)cc1 the Potency was inconclusive: 7.94 µM [inhibitor, single point]. With O=C(c1ccc(F)cc1)N1Cc2[nH]cnc2C[C@H]1c1nc(-c2ccc3c(c2)OCO3)no1 the Potency was inconclusive: 7.08 µM [inhibitor, partial curve]. With CC1=C[C@@H](CN2CCC(C(N)=O)CC2)[C@H](C(C)C)C[C@H]1Cc1nnc(-c2ccc(C)cc2)o1 the Potency was inconclusive: 2.82 µM [inhibitor, single point]. For CCCc1nc(C)cc(N2CCC(NCCc3ccc(Cl)cc3)CC2)n1, the Potency was active: 10 µM. With CCCn1cc(-c2ccncc2)cc1C(=O)NCc1ccccc1 the Potency was inconclusive: 11.2 µM [inhibitor, partial curve, poor fit]. In the case of Cc1cc2ccccc2n1-c1ccc(C(=O)N2CCC(C(=O)NCc3ccc(Cl)cc3)CC2)s1, the Potency is reported as inconclusive: 11.2 µM [inhibitor, single point]. In the case of CCn1cc(C(=O)N2CCc3nc(NC)nc(C(=O)N4CCCC4)c3C2)c(C)n1, the “activity, negative = inhibition” value is reported as inactive: -1.54%. For CCc1ccc(C(=O)c2cn(CC(=O)Nc3cc(C)ccc3C)c3nc(C)ccc3c2=O)cc1, the Potency was inconclusive: 2.51 µM [inhibitor, single point]. For CN1CCCCCCN(C(=O)c2cccn2C)[C@H]2CCC[C@H]2C1=O, the Potency was inconclusive: 11.2 µM [inhibitor, single point]. For O=C(NCCc1ccncc1)c1ccc(-c2nnc3ccc(NC(=O)C4CCC4)cn23)cc1, the Potency was inconclusive: 1 µM [inhibitor, full curve, poor fit]. For CCc1ccc(-n2cnc3cc(C(=O)NCc4ccc(C)cc4)ccc32)cc1, the Potency was inconclusive: 12.6 µM [inhibitor, single point]. For Cc1nc(CN2C(=O)OC3(CCN(Cc4ccccc4F)CC3)C2(C)c2ccccc2)cs1 (stereo not given), the Potency was inconclusive: 3.98 µM [inhibitor, single point]. For O=C1CC(c2ccccc2)N(Cc2ccncc2)CCCN(C(=O)COc2ccc(F)cc2)CCN1 (stereo not given), the Potency was inconclusive: 12.6 µM [inhibitor, partial curve, poor fit]. For CN1CCc2c([nH]c3ccccc23)C12CCN(S(=O)(=O)c1cn(C)cn1)CC2, the Potency was inconclusive: 7.94 µM [inhibitor, partial curve, poor fit]. For COc1cccc(CN2CCC3(CC2)OC(=O)N(Cc2ccccc2)C3(C)c2ccccc2)c1 (stereo not given), the Potency was inconclusive: 1.58 µM [inhibitor, full curve]. With Cc1nc(-c2c3n(c(=O)n(Cc4cccc(Br)c4)c2=O)CCCC3)no1 the “activity, negative = inhibition” value was inactive: -28.5%. In the case of CCN(CC)CCCNC(=O)c1ccc(-c2nc(CN3CCc4ccccc43)c(C)o2)cc1, the Potency is reported as inconclusive: 8.91 µM [inhibitor, partial curve, poor fit]. In the case of CCOc1ccc(C(=O)NCCn2cc(SCC(=O)Nc3ccc4c(c3)OCCO4)c3ccccc32)cc1, the Potency is reported as inconclusive: 8.91 µM [inhibitor, partial curve, poor fit]. For CCOc1ccc(-c2nc(CSCC(=O)N3CCN(c4ccc(F)cc4)CC3)c(C)o2)cc1, the Potency was inconclusive: 17.8 µM [inhibitor, single point]. In the case of Cc1cccc(Cn2c(SCc3ccc(C(=O)NCCc4ccccc4)cc3)nc3ccncc32)c1, the Potency is reported as active: 3.16 µM. In the case of O=C(c1ccccn1)N1CCC(N2C(=O)C(O)C23CCCCC3)CC1 (stereo not given), the “activity, negative = inhibition” value is reported as inactive: 2.41%. For Cc1cccc(CCNC(=O)c2ccc3c(c2)N(Cc2ccccc2F)C(=O)c2ccccc2S3)c1, the Potency was inconclusive: 10 µM [inhibitor, single point]. In the case of Cc1cc(-c2ccc(C)c(S(=O)(=O)N3CCN(c4cccc(C(F)(F)F)c4)CC3)c2)on1, the Potency is reported as inconclusive: 10 µM [inhibitor, single point]. With CCNC(=O)NCC1c2cc(OC)c(OC)cc2CCN1C(=O)Nc1ccccc1OC (stereo not given) the “outcome” value was “inactive”. With CCCN(Cc1nccn1C)C(=O)c1cccc(C2CCNC2)c1 (stereo not given) the “activity, negative = inhibition” value was inactive: 15%. With Cc1ccc(Oc2c(C(F)(F)F)oc3c(CN4CCC(C)CC4)c(O)ccc3c2=O)cc1 the Potency was active: 1 µM. In the case of O=C1[C@H]2CN(Cc3ccccc3F)C[C@H]2C(=O)N1Cc1ccc2c(c1)OCO2, the “activity, negative = inhibition” value is reported as inactive: -1.62%. In the case of CCNC(=O)N1CCCCCCNC(=O)[C@@H]2CCC[C@@H]21, the “activity, negative = inhibition” value is reported as inactive: 27.3%. With O=C(C1CCCC1)N1CCC2(CC1)CC(c1cccnc1)=NO2 the “activity, negative = inhibition” value was inactive: -14.5%. With CCN(CC)C(=O)c1sc2c(c1C)c(=O)n(-c1ccc(Cl)c(Cl)c1)c(=O)n2Cc1ccccc1C#N the Potency was inconclusive: 17.8 µM [inhibitor, single point]. For O=C(CCC[C@@H]1[C@H]2CCCN3CCC[C@@H](CN1C(=O)c1ccccc1)[C@@H]23)Nc1ccc(F)cc1F, the Potency was inconclusive: 3.98 µM [inhibitor, single point]. With Cc1cccc(OC[C@H]2C[C@@H](NC(=O)c3ccc(C#N)cc3)[C@H](O)[C@@H]2O)n1 the “activity, negative = inhibition” value was inactive: -12.2% [at 44.1 µM]. With COc1ccccc1C(=O)NCC1Cn2cccc2C(=O)N1Cc1ccccc1 (stereo not given) the “outcome” value was “inactive”. In the case of CCn1nccc1C(=O)N1C[C@@H](COC)[C@H](c2nc(C3CC3)no2)C1, the “activity, negative = inhibition” value is reported as inactive: 33.2%. In the case of CCc1cccc(NC(=O)c2ccc3c(c2)N(Cc2cccc(Cl)c2)C(=O)c2ccccc2S3=O)c1 (stereo not given), the Potency is reported as inconclusive: 10 µM [inhibitor, single point]. In the case of O=C1NCc2ccccc2CC12CCN(Cc1ccc(CO)o1)CC2, the Potency is reported as inconclusive: 10 µM [inhibitor, single point]. For CCOC(=O)c1c(C)[nH]c(C)c1S(=O)(=O)N1CCN(c2cc(Cl)ccc2C)CC1, the Potency was inconclusive: 11.2 µM [inhibitor, partial curve]. For C=CCN(C)C(=O)[C@@H]1Cc2cn(Cc3cc(C)on3)c3cccc(c23)[C@H](CC(C)C)N1, the Potency was inconclusive: 3.55 µM [inhibitor, partial curve, poor fit]. In the case of Clc1ccccc1Cn1c(-c2cccs2)nc2ccccc21, the Potency is reported as inconclusive: 8.91 µM [inhibitor, single point]. With Cc1nnc(NC(=O)c2nc(SC(C)C)ncc2Cl)s1 the “activity, negative = inhibition” value was inactive: 4.14%. For C[S+](=O)([O-])c1ccc(-c2nc(C(=O)NCCc3ccc(Cl)cc3)n3ccccc23)cc1, the Potency was inconclusive: 7.94 µM [inhibitor, partial curve, poor fit]. In the case of Cc1cc(CNC(=O)c2cc(-c3ccnn3C)cc3c2OCCN3C)no1, the “outcome” value is reported as “inactive [at 44.1 µM]”. In the case of CCCn1cc(C2CCN(S(=O)(=O)c3c(C)cc(C)cc3C)CC2)c2ccccc21, the Potency is reported as inconclusive: 1.58 µM [inhibitor, full curve, poor fit]. For C[S+](=O)([O-])N1CC2(CCCCN2Cc2ccccn2)Cc2ccccc21 (stereo not given), the Potency was active: 8.91 µM. With Fc1ccc(CN2CCC3(CC2)CC(c2cccnc2)=NO3)cc1 the Potency was inconclusive: 7.94 µM [inhibitor, partial curve]. For O=C(c1ccccc1F)N1CCCC2(CN[S+](=O)([O-])c3ccccc3N2)C1 (stereo not given), the “outcome” value was “inactive”. In the case of COc1ccc(CCNC(=O)c2ccc3c(c2)N=C(C)c2ccccc2S3)cc1OC, the Potency is reported as inconclusive: 0.631 µM [inhibitor, full curve, poor fit]. For Cc1cccc(NC(=O)CN(C)S(=O)(=O)c2ccc3c(c2)c(=O)n(C)c(=O)n3C)c1C, the “activity, negative = inhibition” value was inactive: -3.63%. In the case of COc1ccc(CCNS(=O)(=O)c2c(C)nc3sc(C)cn3c2=O)cc1OC, the “activity, negative = inhibition” value is reported as inactive: -16%. With Cc1cc(Nc2cccc(C(=O)O)c2)n2nc(C)nc2n1 the activity, negative = inhibition was inactive: 52.3% [at 0.594 µM]. In the case of COc1ccc(-c2nc(C3CC3)nc3c2CCN(C(=O)c2ccccc2OC)CC3)cc1, the Potency is reported as inconclusive: 7.94 µM [inhibitor, partial curve, poor fit]. For COc1cc(NC(=O)N2CCCC2c2nncn2C2CCCC2)cc(OC)c1 (stereo not given), the “activity, negative = inhibition” value was inactive: -6.79%. With O=C1NC(C(=O)NC2CCCCC2)Cn2cccc21 (stereo not given) the “activity, negative = inhibition” value was inactive: 31.1%. In the case of Cc1ccc(-c2noc(-c3ccc(N4CCCC4)c([N+](=O)[O-])c3)n2)cc1, the Potency is reported as inconclusive: 0.631 µM [inhibitor, partial curve]. For Cc1ccc(C(=O)Nc2c(C(=O)Nc3ccc(C)c(C)c3)sc3nc(C)cc(C)c23)cc1, the Potency was inconclusive: 17.8 µM [inhibitor, single point]. In the case of COc1cc(-c2cc(OC)c3c(C)oc(C)c3c(=O)c2)ccc1OC(=O)c1cccc(C)c1, the Potency is reported as inconclusive: 11.2 µM [inhibitor, single point]. In the case of O=C(C1CCCC1)N1CC2(CCCN(CC3CCCCC3)C2)Cc2ccccc21 (stereo not given), the Potency is reported as inconclusive: 10 µM [inhibitor, single point]. In the case of O=C(CCC1CCCC1)N1CC(c2nnc(-c3ccncc3)o2)C2(CCOCC2)C1 (stereo not given), the Potency is reported as inconclusive: 0.794 µM [inhibitor, full curve]. For Cc1ccc(CNC(=O)c2ccc3c(c2)c(C)c(C)n3Cc2ccc(Cl)cc2)o1, the Potency was active: 10 µM. In the case of CCOc1ccc(CN(CCc2ccc3c(c2)OCO3)Cc2ccc(OC)c(Br)c2)cc1, the Potency is reported as inconclusive: 10 µM [inhibitor, single point]. With Cn1ncc(N2CCC(NC(=O)Cc3ccsc3)CC2)cc1=O the Potency was inconclusive: 20 µM [inhibitor, single point]. In the case of COc1ccccc1OC1CCN(Cc2ccccc2C#N)CC1, the Potency is reported as inconclusive: 5.01 µM [inhibitor, partial curve, poor fit].
